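Method: 48-hour compound exposure of cells in 96-well plates, five concentrations, linear interpolation of endpoints. At the GI50, growth is halved. The concentration for full growth arrest is given as TGI.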
Each compound was assayed on NCI-H322M lung (assay: NCI anticancer screen, dose series, 48 h).
`CCN(CC)CCCC(C)NCC(=O)NC(c1ccc2c(c1)OCO2)c1cc(Cl)c2cccnc2c1O` (stereo unspecified) showed a GI50 of 2.17 µM and a TGI of 11.7 µM.
Work on `Fc1cccc(Cl)c1/C=N/Nc1nc(N/N=C/c2c(F)cccc2Cl)nc(N2CCCCC2)n1` yielded a GI50 of 4.12 µM and a TGI of over 100 µM.
In the case of `CCN1C(=O)N(CC)C2SC(N/N=C/c3ccc(OC)cc3)=NC21` (stereo unspecified), the GI50 is reported as 0.698 µM and the TGI is reported as over 100 µM.

Reference: PubChem BioAssay (NCI)
